The values that follow come from US20240301031A1 (JIANGSU HENGRUI PHARMACEUTICALS, published 2024).

The target of assay [1] is T1, human IL-12 (CT050-H08H, Sino biological) (human, UniProt P29459 23-219; P29460 23-328).
T1 construct: Bought heterodimer
T1 sequence (looked up) 1: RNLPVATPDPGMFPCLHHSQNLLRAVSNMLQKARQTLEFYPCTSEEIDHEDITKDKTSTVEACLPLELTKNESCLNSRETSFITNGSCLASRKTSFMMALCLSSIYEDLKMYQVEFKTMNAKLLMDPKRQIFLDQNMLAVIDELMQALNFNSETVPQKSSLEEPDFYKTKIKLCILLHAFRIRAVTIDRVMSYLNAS
T1 sequence (looked up) 2: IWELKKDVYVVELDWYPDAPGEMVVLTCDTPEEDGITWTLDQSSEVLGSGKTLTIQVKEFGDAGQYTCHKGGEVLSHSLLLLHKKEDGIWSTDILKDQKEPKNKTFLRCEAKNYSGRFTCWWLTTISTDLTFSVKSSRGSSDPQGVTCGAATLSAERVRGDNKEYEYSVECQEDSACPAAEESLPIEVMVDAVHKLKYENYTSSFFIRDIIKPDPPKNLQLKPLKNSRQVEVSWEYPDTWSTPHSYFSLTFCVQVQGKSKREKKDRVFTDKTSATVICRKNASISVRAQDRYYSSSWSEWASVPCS
In words: SPR (Biacore), sample captured on Protein A, antigen flowed, 1:1 fit. As to the method: (§1) A certain amount of test sample was subjected to affinity capture by a biosensor chip Protein A (GE, 29127556), then antigens at a series of concentration gradients were allowed to flow on the surface of the chip. The reaction signals were detected in real time by using Biacore (GE, 8K) to obtain association and dissociation curves. After the dissociation was completed for each cycle, the biochip was washed and regenerated with a 10 mM glycine-hydrochloric acid solution at pH 1.5 (GE, BR-1003-54). The experimental data were fitted using BIAevaluation version 4.1, GE software with a 1:1 model to obtain affinity values. The related antigen proteins used in this assay are as follows: human IL-23 (CT048-H08H, Sino biological), human IL-12 (CT050-H08H, Sino biological), human BAFF (10056-HNCH, Sino biological), human APRIL (5860-AP-010/CF, R&D Systems), cynomolgus monkey p40 (10215-CL, R&D Systems), cynomolgus monkey BAFF (BAF-CM412B, Kactus), cynomolgus monkey APRIL (APR-CM410B, Kactus), mouse BAFF (BAF-M521y, Acro Biosystems), and mouse APRIL (7907-AP/CF, R&D Systems).
Background: In SPR one partner is held on a chip, and binding of the other changes the refractive index at the surface.

Assay [2] has as its target T2, cynomolgus monkey p40 (10215-CL, R&D Systems) (cynomolgus monkey).
T2 construct: Bought protein
Described as above. How it is done:
as §1

The target of assay [3] is T3, human APRIL (5860-AP-010/CF, R&D Systems) (human, UniProt O75888 115-250, limits assumed).
T3 construct: Bought protein
T3 sequence (looked up): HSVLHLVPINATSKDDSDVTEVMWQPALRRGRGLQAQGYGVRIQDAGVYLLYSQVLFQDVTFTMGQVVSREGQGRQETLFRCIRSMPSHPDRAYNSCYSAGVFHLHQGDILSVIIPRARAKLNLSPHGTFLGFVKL
In words: competition ELISA: biotin-labeled APRIL to coated TACI. How it is done:
(§2) A receptor protein was diluted to 2 μg/mL with PBS at pH 7.4 (BasalMedia, B320) and added to a 96-well microplate (Corning, 3590) at 100 μL/well. The plate was incubated at 4° C. overnight. After the liquid was discarded, 200 μL of 1% Casein blocking solution (Thermo, 37528) was added to each well for blocking, and the plate was incubated at 37° C. for 2 h. After the blocking was completed, the blocking solution was discarded, and the plate was washed 3 times with a PBST buffer (PBS at pH 7.4 containing 0.1% tween-20) for later use. A biotin-labeled ligand protein at a fixed concentration was mixed with the antibody or fusion protein diluted in gradient, pre-incubated at 37° C. for 30 min, and added to a blocked microplate. The plate was incubated at 37° C. for 1.5 h. After the incubation was completed, the plate was washed 3 times with PBST. 100 μL of streptavidin-HRP (Invitrogen, 434323, diluted at a ratio of 1:4000) was added to each well, and the plate was incubated at 37° C. for 1 h. The supernatant was removed, and the plate was washed 3 times with PBST. […] The plate was read for absorbance values at 450 nm on a microplate reader, the curves for the inhibition of the binding of the ligands to the receptors were fitted with software, and the IC₅₀ values were calculated. […]
Background: ELISA stands for enzyme-linked immunosorbent assay.

The target in assay [4] is T3, human APRIL (5860-AP-010/CF, R&D …). In words: cell-based or functional assay.
The target is the same in assay [5]. As to the kind of experiment: competition ELISA: biotin-labeled APRIL to coated BCMA. As to the method: as §2

B1: TACI-Mab1 (other)
heavy: EVQLVQSGAEVKKPGESLKISCKGSGYSFTTYWLGWVRQMPGKGLDWIGIMSPVDSDIRYSPSFQGQVTMSVDKSITTAYLQWNSLKASDTAMYYCARRRPGQGYFDFWGQGTLVTVSS[omitted - human IgG1 constant region]GGSSTSCREEQGEFYDHLLRDCISCASICGQHPKQCAAFCENK
light: [omitted - about 200 residues]
notes: also called TACI antibody fusion protein
For the molecule B1, in assay [1], binding was put at a Kd of 0.0424 nM; the off-rate (koff) (commonly the rate constant with which the complex falls apart) was 0.000211 s⁻¹; the kon – broadly, the rate constant with which the complex forms – is 4.97e+06 M⁻¹ s⁻¹. Besides, in assay [2], binding was characterised by a dissociation constant (Kd) of 0.267 nM, the koff turned out to be 0.000238 s⁻¹ and the kon came out at 891000 M⁻¹ s⁻¹.

B2: TACI-Mab2 (other)
heavy: B1 heavy
light: STSCREEQGEFYDHLLRDCISCASICGQHPKQCAAFCENKLGGGGSGGGGSGGGGS[omitted - about 200 residues]
notes: as for B1
With B2, the half-maximal inhibitory concentration (IC50) – broadly, the concentration at which inhibition is half-maximal – came to 0.833 nM in assay [3] and 2.43 nM in assay [5]. Also, the “IC50 (nM) for the inhibition of the APRIL-induced B cell proliferation” value in assay [4] amounted to 0.0892 nM.
